Test results published in PubChem BioAssay AID1468 (National Center for Advancing Translational Sciences (NCATS), 2008).
Out of some 280,000 compounds screened, about 1,100 (0.39%) were called active. Inconclusive results, whose numbers are uncertain, are shown with a selection of clear calls. The call rests on the fitted dose curve; in most records, active means well fitted inhibition curve with a large enough effect; inconclusive means small, poorly fitted or top-dose-only effect, or effect the other way; inactive means flat fitted curve, though single readings scatter. Potencies of inconclusive entries are left out as doubtful fits.

Molecular target: Microtubule-associated protein tau (Homo sapiens) (UniProt P10636)
UniProt P10636, sequence (P10636 whole entry, looked up): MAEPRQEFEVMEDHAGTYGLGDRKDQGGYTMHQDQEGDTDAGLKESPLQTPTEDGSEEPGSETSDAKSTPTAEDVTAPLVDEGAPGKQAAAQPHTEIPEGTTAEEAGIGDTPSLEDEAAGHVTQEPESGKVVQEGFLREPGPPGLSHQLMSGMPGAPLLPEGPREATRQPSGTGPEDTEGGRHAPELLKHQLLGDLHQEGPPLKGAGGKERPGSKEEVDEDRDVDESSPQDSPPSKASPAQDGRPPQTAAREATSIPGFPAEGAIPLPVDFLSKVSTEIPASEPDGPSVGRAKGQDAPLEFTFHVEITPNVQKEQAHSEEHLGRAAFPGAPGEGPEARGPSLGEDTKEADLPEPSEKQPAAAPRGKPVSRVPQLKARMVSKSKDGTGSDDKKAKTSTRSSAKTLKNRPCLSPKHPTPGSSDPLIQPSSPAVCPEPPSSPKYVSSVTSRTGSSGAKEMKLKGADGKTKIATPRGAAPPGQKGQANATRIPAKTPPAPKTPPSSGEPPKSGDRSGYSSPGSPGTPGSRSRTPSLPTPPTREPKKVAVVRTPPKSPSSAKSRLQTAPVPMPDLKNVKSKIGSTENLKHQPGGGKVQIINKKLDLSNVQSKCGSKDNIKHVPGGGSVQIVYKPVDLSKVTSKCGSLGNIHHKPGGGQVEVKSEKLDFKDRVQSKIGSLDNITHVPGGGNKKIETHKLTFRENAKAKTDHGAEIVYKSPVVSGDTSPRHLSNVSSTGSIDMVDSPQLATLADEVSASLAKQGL
Assay: qHTS for Inhibitors of Tau Fibril Formation, Fluorescence Polarization; further: nearly all actives have a fitted effect of over 55% in size
Details: K18 P301L tau heparin fibrillization, Alexa594 FP, 6 h; series mostly up to 57.7 µM; activity, negative = inhibition: at the top concentration
Outline: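 FP of Alexa 594-tau after heparin (20 uM) induction. Substrate: human K18 P301L, 15 uM unlabeled, 0.24 uM labeled. Buffer 100 mM sodium acetate pH 7. 6 hr, 37 C.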
On the % scale 0 is the no-effect control and ±100 the full control effect; potency means the concentration at half of the fitted maximal effect; tags describe the fitted curve by direction and shape.

Row | Compound | Potency | activity, negative = inhibition
1 | NC(=S)N/N=C\c1c(OCc2ccccc2Cl)ccc2ccccc12 | inconclusive [inhibitor, single point] | –
2 | Cc1ccc(NC(=S)N=Nc2c(O)[nH]c3ccccc23)cc1 | inconclusive [inhibitor, single point] | –
3 | CCOC(=O)C1=C(CSc2nc3c(cc2C#N)CN(C)CC3)OC(N)=C(C#N)C1c1ccc(Cl)cc1 (configuration not stated) | – | inactive: -16%
4 | CCCC1(C(=O)OCC)NC(c2ccc(N(C)C)cc2)C2C(=O)N(c3ccc(OCC)cc3)C(=O)C21 (configuration not stated) | – | inactive: -12.3%
5 | CCOc1cc(/C=C2\C(=O)N(CCc3ccc(OC)c(OC)c3)C(C)=C2C(=O)OC)ccc1O | inconclusive [inhibitor, single point] | –
6 | CCc1nnc(NS(=O)(=O)c2ccc(NC(=S)NC(=O)c3ccc(OC)cc3)cc2)s1 | inconclusive [activator, single point] | –
7 | Cc1cccc(CNC(=O)C2CCN(c3nc4ccc(Cl)cc4[nH]3)CC2)c1 | inconclusive [activator, single point] | –
8 | Cc1ccc(CNC(=O)CSc2c3c(nc4ccc(Cl)cc24)CCCC3)o1 | – | inactive: 8.14%
9 | Cc1cccc(Nc2nnc(SCC(=O)Nc3ccccc3[N+](=O)[O-])s2)c1 | inconclusive [activator, partial curve, poor fit] | –
10 | COc1ccc(C2Nc3ccccc3-c3nnc(SC)nc3O2)cc1C (configuration not stated) | inconclusive [inhibitor, single point] | –
11 | COc1cc(C2c3c(oc4ccc(C)cc4c3=O)C(=O)N2Cc2ccc(F)cc2)ccc1O (configuration not stated) | inconclusive [inhibitor, partial curve] | –
12 | CCCNC(=O)c1cc(OC)c(OC)cc1[N+](=O)[O-] | – | inactive: -4.12%
13 | CCCCCNC(=O)c1ccc2c(=O)n(CCCOCC)c(=S)[nH]c2c1 | inconclusive [inhibitor, single point] | –
14 | CCn1c(CNc2ccc(Cl)cc2)nnc1SCC#N | – | inactive: 6.85%
15 | CCOc1ccccc1CNC(=O)c1cnc2sc(N3CCC(C)CC3)nn2c1=O | – | inactive: -5.42%
16 | Clc1ccccc1-c1nnc2sc(-c3ccncc3)nn12 | – | inactive: -4.02%
17 | CCC(=O)Oc1cccc(C(=O)Nc2ccc(-c3nnc(-c4ccco4)o3)cc2)c1 | inconclusive [inhibitor, single point] | –
18 | O=C(Nc1ccc(Cl)c(Cl)c1)Nc1cc(C(=O)NC2CC2)ccc1Cl | inconclusive [inhibitor, partial curve] | –
19 | Cc1ccc(CNc2nc(-c3cccs3)nc3ccccc23)cc1 | active: 39.8 µM | –
20 | COc1ccc(Cl)cc1C(=O)NC(=S)Nc1cc(-c2nc3ccccc3[nH]2)ccc1C | inconclusive [inhibitor, partial curve] | –
21 | N#CC1=C(S)N(c2ccccc2)C(c2ccc(-c3ccc(Cl)c(Cl)c3)o2)NC1=O (configuration not stated) | active: 25.1 µM | –

Row | Compound | Potency | activity, negative = inhibition
22 | O=C(c1ccccc1)c1ccc2nc(Nc3ccccc3Cl)c3nncn3c2c1 | inconclusive [inhibitor, single point] | –
23 | COc1ccc(/C=N/N2CCN(C3c4ccccc4-c4ccccc43)CC2)cc1O | inconclusive [activator, partial curve, poor fit] | –
24 | COC(=O)c1[nH]c2cc(OC)ccc2c1NC(=O)CCN1CCN(c2cccc(C)c2C)CC1 | inconclusive [activator, partial curve, poor fit] | –
25 | COc1cc(/C=N/NC(=O)C(Cc2c[nH]c3ccccc23)NC(=O)OCC(C)C)cc([N+](=O)[O-])c1OCc1ccccc1 (configuration not stated) | – | inactive: 15.8%
26 | COc1ccc2c(=O)cc(-c3ccc(O)cc3)oc2c1 | inconclusive [inhibitor, single point] | –
27 | COc1ccc(-c2[nH]ncc2N=Nc2ccccc2)cc1 | inconclusive [inhibitor, partial curve] | –
28 | COC(=O)CC1=C(C(=O)OC)C(c2cccc(OCC(N)=O)c2)C(C#N)=C(N)O1 (configuration not stated) | inconclusive [inhibitor, partial curve, poor fit] | –
29 | N#CC1=C(N)OC2=C(CCc3ccccc32)C1c1ccccc1Cl (configuration not stated) | inconclusive [inhibitor, single point] | –
30 | CC(=O)N/N=C/C1=CCC2CC1C2(C)C (configuration not stated) | – | inactive: -11.7%
31 | Cc1ccccc1OCC(=O)Nc1ccc2nc(SCC(=O)N(C)c3ccccc3)sc2c1 | – | inactive: 3.39%
32 | CCOc1ccc(NC(=NCc2ccc3c(c2)OCO3)SC2CC(=O)N(c3ccccc3)C2=O)cc1 (configuration not stated) | inconclusive [inhibitor, full curve] | –
33 | CC(C)(C)OC(=O)N1CCC(c2c(C(=O)N3CCN(c4ccc(Cl)cc4)CC3)cnn2-c2ccc(F)cc2F)CC1 | – | inactive: 1.77%
34 | COc1cccc(NC(=O)C2CCCN(c3nnc(-n4c(C)ccc4C)s3)C2)c1 (configuration not stated) | inconclusive [inhibitor, partial curve] | –
35 | COc1ccccc1CNC(=O)CCCn1nc(C)c2sc3ccccc3c2c1=O | inconclusive [inhibitor, single point] | –
36 | COc1cccc([C@@H]2Oc3ccc(OC)cc3C(=O)[C@H]2OC(=O)NCCc2ccc(OC)c(OC)c2)c1 | – | inactive: -4.38%
37 | O=C(O)c1ccc(N/N=C/c2ccc(OC(=O)c3cccc(Cl)c3)cc2)cc1 | inconclusive [activator, partial curve] | –
38 | Cc1ccc(NS(=O)(=O)c2ccc(NC(=O)c3ccc(Br)o3)cc2)c(C)c1 | inconclusive [inhibitor, partial curve] | –
39 | COc1ccc(CNc2nc(-c3ccco3)nn2C(=O)c2ccccc2Cl)cc1 | inconclusive [inhibitor, partial curve, poor fit] | –
40 | CC(Oc1cccc(Cl)c1)C(=O)Nc1ccncc1 (configuration not stated) | – | inactive: 6.88%
41 | CCN1CC=C2C(C#N)=C(N)C(C#N)(C#N)C(c3cc(Cl)ccc3Cl)C2C1 (configuration not stated) | inconclusive [inhibitor, single point] | –
42 | CC(=O)N1Cc2ccccc2C(C)CC12CCCCC2 (configuration not stated) | inconclusive [activator, single point] | –
